Out of some 290,000 compounds screened, about 2,100 (0.72%) were called active. Inconclusive means that the source gave no clear call. Such entries were picked first, then a sample of the others. Calls follow the shape of the dose curve; as a rule, active = well fitted inhibition curve with a large enough effect; inconclusive = small, poorly fitted or top-dose-only effect, or effect the other way; inactive = flat fitted curve, though single readings scatter. Where the call is inconclusive, the potency comes from a doubtful curve fit.
These molecules were tested against Fructose-bisphosphate aldolase (Giardia intestinalis (strain ATCC 50803 / WB clone C6)) (UniProt A8B2U2) (assay: qHTS Assay for Inhibitors of Fructose-1,6-bisphosphate Aldolase from Giardia Lamblia). Conditions: purified Giardia FBPA; series mostly up to 59.6 µM.
Outline: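 Giardia FBPA (40 nM reagent) was preincubated 10 min at RT with compound (up to 57.5 uM final), then substrate plus GAPDH/TPI/NAD/arsenate coupling system with diaphorase/resazurin was added; resorufin fluorescence (525/598 nm) was read after 20 min.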
Also: nearly all actives have a fitted effect of over 55% in size.
Potency is read from the fitted curve at half-maximal effect; tags tell the direction and shape of the fitted curve.

UniProt A8B2U2, sequence (A8B2U2 whole entry, looked up): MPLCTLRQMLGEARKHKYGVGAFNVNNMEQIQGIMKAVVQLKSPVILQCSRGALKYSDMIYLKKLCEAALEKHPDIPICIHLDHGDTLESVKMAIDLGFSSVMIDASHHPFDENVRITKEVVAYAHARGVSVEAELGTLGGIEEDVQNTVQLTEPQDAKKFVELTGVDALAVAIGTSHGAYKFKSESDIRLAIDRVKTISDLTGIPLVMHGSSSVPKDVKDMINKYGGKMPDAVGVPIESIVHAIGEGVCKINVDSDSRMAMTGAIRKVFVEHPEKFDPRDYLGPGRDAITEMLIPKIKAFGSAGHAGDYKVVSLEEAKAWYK

| Structure (SMILES) | Potency |
| --- | --- |
| COC(=O)C1CCCCN1C(=O)c1cccc(OC2CCN(C(=O)C3CC3)CC2)c1 (stereo not given) | inactive |
| N#CC1=C(N)N(c2ccccc2)C2=C(C(=O)CCC2)C1c1ccccc1 (stereo not given) | inconclusive: 19.9 µM [inhibitor, single point] |
| CCOC(=O)N1CCN(CC(=O)Nc2nc3ccc(OC)cc3s2)CC1 | inconclusive: 12.6 µM [inhibitor, partial curve] |
| Cc1ccccc1OCc1nc(-c2ccc(NC(=O)c3ccco3)cc2)no1 | inactive |
| COc1cc2nc(N3CCN(C(=O)C4CCCO4)CC3)nc(N)c2cc1OC (stereo not given) | inconclusive: 15.8 µM [inhibitor, partial curve] |
| CCOCCCn1c(=O)c2ccccc2n2c(=S)[nH]nc12 | active: 12.6 µM |
| Cc1ccc(NS(=O)(=O)c2cccc3nsnc23)cc1 | inconclusive: 15.8 µM [inhibitor, single point] |
| CO/N=C(\C(=O)O)c1csc(NN=C(C)C)n1 | inconclusive: 6.29 µM [inhibitor, single point] |
| COc1cccc(NC(=O)C2CC(=O)n3cnnc3S2)c1 (stereo not given) | inconclusive: 3.54 µM [inhibitor, partial curve] |
| CCOCCCn1c(N)c(C(=O)Nc2sc3c(c2C(=O)OC)CCCC3)c2nc3ccccc3nc21 | inconclusive: 19.9 µM [inhibitor, partial curve] |
| COc1ccc(CCCC(=O)N/N=C/c2ccccc2OC)cc1 | active: 15.8 µM |
| CCOc1cc(CN2CCN(C(=O)Cc3ccccc3)CC2)ccc1OC | inconclusive: 25.1 µM [inhibitor, single point] |
| C=CCNc1nc2ccccc2nc1NS(=O)(=O)c1ccc(Cl)cc1 | inconclusive: 28.2 µM [inhibitor, single point] |
| Cc1cc(C)c2c(=O)[nH]c(SCC(=O)Nc3ccc(Br)cc3)nc2n1 | active: 31.6 µM |
| CCOc1ccc(N(CC(=O)Nc2ccc(OC)cc2)C2=NC3CS(=O)(=O)CC3S2)cc1 (stereo not given) | active: 12.6 µM |
| O=C(CN1CC(=O)Oc2ccccc21)NCc1ccco1 | inconclusive: 1.99 µM [inhibitor, partial curve] |
| CCCCC1=CC2=CC(=O)C(C)(OC(=O)CC)C(=O)C2=CN1CCN1CCOCC1 (stereo not given) | inconclusive: 5.61 µM [inhibitor, partial curve] |
| Nc1ccc(CN2CCCCCC2)cc1 | inconclusive: 19.9 µM [inhibitor, partial curve] |
| Cn1c(=NCC(O)COc2ccccc2)sc2ccccc21 (stereo not given) | inactive |
| COc1ccc(/C=N/n2c(=S)n(C)c3ccccc32)cc1OC | inactive |
| COC(=O)c1cc(=O)n(Cc2ccc3c(c2)OCO3)c(=Nc2ccccc2)s1 | inconclusive: 5 µM [inhibitor, partial curve] |
| COc1ccc(CCC(C)NCc2ccccc2OC)cc1 (stereo not given) | inconclusive: 28.2 µM [inhibitor, single point] |
| CC(=O)OCCNc1cc(N2CCN(C)CC2)c2noc3c2c1C(=O)c1ccccc1-3 | inconclusive: 3.54 µM [inhibitor, partial curve] |

| Structure (SMILES) | Potency |
| --- | --- |
| CN1CCc2c(C#N)c(N3CCCCC3)nc(NCc3ccccc3)c2C1 | inconclusive: 3.15 µM [inhibitor, full curve] |
| O=C(O)c1ccc(S(=O)(=O)NC2CCCc3ccccc32)cc1 (stereo not given) | inconclusive: 15.8 µM [activator, single point] |
| CCCN1c2cccc3cccc(c23)S1(=O)=O | inconclusive: 19.9 µM [inhibitor, partial curve] |
| CC(C)Cn1c(=S)[nH]c2cc(C(=O)O)ccc2c1=O | inconclusive: 19.9 µM [activator, single point] |
| c1ccc2c(c1)OCC(CNCC1COc3ccccc3O1)O2 (stereo not given) | inconclusive: 28.2 µM [inhibitor, partial curve] |
| CCCC1=NN2C(=N)/C(=C\c3ccc(SCc4ccco4)o3)C(=O)N=C2S1 | inactive |
| Cc1ccc(C(=O)Nc2nnc(-c3ccncc3)o2)cc1 | active: 14.1 µM |
| CCOc1ccc(-n2c(O)c(/C=N/NC(=O)C3COc4ccccc4O3)c3ccccc3c2=O)cc1 (stereo not given) | inconclusive: 19.9 µM [activator, single point] |
| C#CCOCCOCCOCCNc1nc(N2CCN(C(=O)[C@H](CCC(=O)O)n3cc(C(N)CO)nn3)CC2)nc(N2CCN(C(=O)[C@H](CCC(=O)O)n3cc(C(N)[C@H](C)CC)nn3)CC2)n1 (stereo not given in full) | inactive |
| O=C(Nc1ccc(N2CCCC2)cc1)c1ccc2ccccc2c1 | inactive |
| CCOC(=O)N1CCC(N2CCN(S(=O)(=O)c3ccc4ccccc4c3)CC2)CC1 | inconclusive: 19.9 µM [inhibitor, partial curve] |
| Cc1ccccc1N1CCN(C(=O)c2ccc(Oc3ccc(C(F)(F)F)cn3)cc2)CC1 | inactive |
| Cc1nn(C(C)(C)C)c(C)c1/C=N/OC(=O)Nc1ccc(Cl)cc1 | inactive |
| O=C1C(Nc2ccccc2)=C/C(=N/S(=O)(=O)c2cccs2)c2ccccc21 | inconclusive: 0.126 µM [inhibitor, full curve] |
| CCCC1CC(=O)OC1(C)C(=O)CSc1n[nH]c(-c2ccccc2)n1 (stereo not given) | inactive |
| CCN(Cc1nc2ccccc2c(=O)[nH]1)Cc1nc2ccsc2c(=O)[nH]1 | active: 0.792 µM |
| COc1ccc(Cl)cc1C(Nc1cccnc1)c1ccc2cccnc2c1O (stereo not given) | inconclusive: 44.6 µM [inhibitor, single point] |
| CN(C)C=Nc1c(Br)cc(Br)c2nonc12 | inconclusive: 7.92 µM [inhibitor, partial curve] |
| Cc1cc(C(=O)N/N=C/c2ccc(Cl)c([N+](=O)[O-])c2)c(C)n1-c1ccc(F)cc1 | inconclusive: 35.4 µM [activator, single point] |
| O=c1oc2cc([N+](=O)[O-])ccc2nc1/C=C(\O)c1cccc(Br)c1 | inconclusive: 17.7 µM [inhibitor, single point] |
| CCOc1cc(CNc2ccc3cn[nH]c3c2)ccc1OC | inconclusive: 7.92 µM [inhibitor, partial curve] |
| COc1ccc(C2=NN(C(=O)CCC(=O)O)C(c3ccc(OC)cc3)C2)cc1 (stereo not given) | inactive |
